Test results taken from the supplement of paper PMC11417369.
± gives the standard deviation of the averaged measurements. Some of the results follow.

test system: PfAP2-G AP2 domain (GST-tagged); experiment: gcPBM binding intensity (ln(normalized median fluorescence intensity)); higher = stronger DNA binding
Outline: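 The binding buffer was 1× PBS containing 1% milk, 0.2 mg/ml BSA, 0.5% salmon testes DNA and 0.03% Triton X-100. In it, GST-tagged P. falciparum DNA-binding domains expressed in E. coli were applied for 1 h to an Agilent 4 × 180k array of primer-extended double-stranded 36-bp intergenic genomic probes plus negative controls. Binding intensity, read with Alexa488 anti-GST antibody and a 488 nm scan, is the highest Masliner-normalised natural-log median intensity across replicate spots of either probe orientation.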

Row | Sequence | gcPBM binding intensity (ln)
1 | AAATTTATAAAGAACACACACATATAAATATAAATA [CACACA_site6174] | 10.05 ± 0.071
2 | TTATATATTTATATATGTACACATTTTACCATTTTT [XGTACX_site2142] | 11.6 ± 1.1
3 | ATTTATTTCTTGTTAGTGCACTTTCTTTGGTAAAAT | 10.5 ± 0.36
4 | TTAAAATGTTGTAACGTGCACATTTTGTGGAAATCA [GTGCAC_site9559] | 10.4 ± 0.22
5 | ATACAAACAATTATTTGTACATAAAATTTTTTTTTT [XGTACX_site90] | 10.9 ± 0.47
6 | ATGAATCTTTTAAAAAGTACATGTGAAAAAAATAAA [XGTACX_site49] | 11.3 ± 0.87
7 | TTATAATTGTAAGGTAGTACATATAAATCAAATAAT [XGTACX_site7190] | 11.5 ± 0.94
8 | TATACAGATGGACACACACACATATATATATATATA [CACACA_site5272] | 11.1 ± 0.67
9 | GGTGGTAAAAAACCTGCATGTCGAAATATTAAATAC [TGCATGCA_site33] | 10.3 ± 0.18
10 | AAAAAAAAAAAAAAGAGTACTCATATAAAAATATAA [XGTACX_site6551] | 11.5 ± 0.92
11 | TACAGAATTGTATATAGTACATAAAACAATATATAT [XGTACX_site7275] | 10.9 ± 0.5
12 | GTATATGAATAATATTTTATGGTAATTTTTTTTTTT [XGTACX_negctrl_site512] | 10 ± 0.2
13 | AAGAAGAAACAAAACACACACAGTCTTCTTTTCTAT [CACACA_site3088] | 9.82 ± 0.16
14 | AAACTTGACGAACACACACACACATATATAAAAAAA [CACACA_site6494] | 10.3 ± 0.37
15 | AATGAAAAGTAAAATACACACACATAATATAATTTA [CACACA_site8608] | 9.93 ± 0.12
16 | TGTGTAAAAATCATGGGTACACATTTTGATACCAAT [XGTACX_site1779] | 11.6 ± 0.95
17 | ATAAATTAAAAACACACACACATCTGGATACCCCTA [CACACA_site5780] | 11.1 ± 0.71
18 | TTTTTATAAAAAATTTACACTATATGACAGAAGTAA [XGTACX_negctrl_site481] | 10 ± 0.16
19 | ATATTTTTATATGAGGTGCATATAATGACAATTAAG | 10.3 ± 0.32
20 | TCTTTTTATGTTCTAGAGCATTTTATTATTTAACAT [CACACA_negctrl_site1699] | 10.05 ± 0.092
21 | ATACTATTTAAATGGGTGCTAAAAATAACAAAAATT | 10.3 ± 0.26
22 | ATATATATACACAATAGTACGTGTAATATTATTATT [XGTACX_site2151] | 11 ± 0.69
23 | TATACCTATAAATACACACACATATATAAATAAATA [CACACA_site6730] | 10.1 ± 0.17

Row | Sequence | gcPBM binding intensity (ln)
24 | AATCGAAATCGTGCACGGACACATGCAGTAGCCGAG [XGTACX_site6001] | 10.9 ± 0.45
25 | TTCCCCCCCAGACACACACACACATACATACCACAT [CACACA_site2305] | 11.8 ± 0.84
26 | GAAGTTAGTGTTGACTGTACATATATATGTATATAT [XGTACX_site7243] | 11 ± 0.64
27 | AAACGTACATAATACACACACATGTATACATATAAA [CACACA_site2048] | 11.4 ± 0.97
28 | ATTTCTTTTTTTTTTTTTTTTAATGTAAAACATTTT [CACACA_negctrl_site1462] | 9.66 ± 0.014
29 | TACGTTTTATGACACACACACAAAAAAAAAAAAAAA [CACACA_site7764] | 10.3 ± 0.79
30 | GATGTATAAAATAATACATGCATGTCCTACATATAT [TGCATGCA_site155] | 10.8 ± 0.51
31 | TTTCTTTTTCGATATACACACTGTATGTGTCTAAAA [CACACA_site6054] | 10.1 ± 0.23
32 | TATATTTATAAATGAACACACACGCAATTTGAATCG [CACACA_site3370] | 10.34 ± 0.021
33 | CTGTATTTATTTTTCTGTACCAAATCACCCCTTGTA [XGTACX_site395] | 11 ± 0.54
34 | CGAAGGATAAACATACGTACATATATGTGTATAATA [XGTACX_site779] | 11.4 ± 0.67
35 | TTTCCGGTAATATGGAAATATATGTGGGTTTTTTTT [CACACA_negctrl_site1536] | 9.915 ± 0.049
36 | ACTATTTTAAAAATATGTACATACGTTGTAATTTAA [XGTACX_site7999] | 11.4 ± 0.83
37 | CTTTGGTTATAACACACATGCACACGTAAATAAATA [TGCATGCA_site976] | 10.5 ± 0.25
38 | TTGTATTAAAATCAAGTGCATATAATTTAAGTTCAT [GTGCAC_site9495] | 10 ± 0.16
39 | TTTTGTTTTTAGTTTATACACACCATATTAATATAA [CACACA_site3102] | 10.2 ± 0.13
40 | CATCACCTTTTTAAATGTACGCATAATACCAAAAAA [XGTACX_site1587] | 11.4 ± 0.89
41 | GTAGGTTACAAAATGTGAGAGAAGCAAATATAGAAA [CACACA_negctrl_site1819] | 10.18 ± 0.028
42 | TAGAATAAATTAATTACACACGGAATTATATATATA [CACACA_site1616] | 9.87 ± 0.22
43 | ATATAAGTACCTATAACACACATATATTATAAGTAT [CACACA_site7281] | 11 ± 0.67
44 | TATCATATATTATAGCGTACTTATTTATTTATTTAT [XGTACX_site1676] | 11.2 ± 0.67
45 | TATAATAGTTCATAGGTGCAATATAATAAATTTATA [GTGCAC_site9573] | 10.1 ± 0.27
